The other results are listed elsewhere or left out.
Assays:
Experiment in all cases: glycan array binding signal (z-score within array); higher = stronger binding
Conditions in all cases: glycan notation: IUPAC condensed, linker removed
[1] = biological target: Fuc(a1-2)Gal
In short: (§1)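 Arrays were curated from the Consortium for Functional Glycomics database, 3228 in total, and kept only where the protein sequence was available. Binding is expressed as a within-array Z-score. This score was averaged across arrays of the same protein sequence at different concentrations or buffers and across linkers, and negative values can be read as non-binding.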

[2] = biological target: Fuc(a1-2)Gal(b1-3)GalNAc
In short: as §1

[3] = biological target: Fuc(a1-2)Gal(b1-3)GalNAc(b1-3)Gal
In short: as §1

[4] = biological target: Fuc(a1-2)Gal(b1-3)GalNAc(b1-3)Gal(a1-4)Gal(b1-4)Glc
In short: as §1

[5] = biological target: Fuc(a1-2)Gal(b1-3)GalNAc(b1-3)Gal(b1-4)Glc
In short: as §1

[6] = biological target: Fuc(a1-2)Gal(b1-3)GalNAc(b1-4)[Neu5Ac(a2-3)]Gal(b1-4)Glc
In short: as §1

[7] = biological target: Fuc(a1-2)Gal(b1-3)[Fuc(a1-4)]GlcNAc
In short: as §1

[8] = biological target: Fuc(a1-2)Gal(b1-4)Glc
In short: as §1

[9] = biological target: Fuc(a1-2)Gal(b1-4)Glc6S
In short: as §1

[10] = biological target: Fuc(a1-2)Gal(b1-4)GlcNAc
In short: as §1

[11] = biological target: Fuc(a1-2)Gal(b1-4)GlcNAc(b1-3)Gal(b1-4)GlcNAc
In short: as §1

[12] = biological target: Fuc(a1-2)Gal(b1-4)GlcNAc(b1-3)Gal(b1-4)GlcNAc(b1-3)Gal(b1-4)GlcNAc
In short: as §1

[13] = biological target: Fuc(a1-2)Gal(b1-4)GlcNAc6S
In short: as §1

[14] = biological target: Fuc(a1-2)Gal(b1-4)[Fuc(a1-3)]GalNAc(b1-3)Gal(b1-4)[Fuc(a1-3)]GlcNAc
In short: as §1

[15] = biological target: Fuc(a1-2)Gal(b1-4)[Fuc(a1-3)]GalNAc(b1-3)Gal(b1-4)[Fuc(a1-3)]GlcNAc(b1-3)Gal(b1-4)[Fuc(a1-3)]GalNAc
In short: as §1

[16] = biological target: Fuc(a1-2)Gal(b1-4)[Fuc(a1-3)]GlcNAc
In short: as §1

[17] = biological target: Fuc(a1-2)Gal6S(b1-4)Glc
In short: as §1

[18] = biological target: Fuc(a1-2)Gal6S(b1-4)Glc6S
In short: as §1

[19] = biological target: Fuc(a1-2)Gal6S(b1-4)GlcNAc
In short: as §1

[20] = biological target: Fuc(a1-2)GlcNAc
In short: as §1

[21] = biological target: Fuc(a1-2)[Gal(a1-3)]Gal
In short: as §1

[22] = biological target: Fuc(a1-2)[Gal(a1-3)]Gal(b1-3)GlcNAc
In short: as §1

[23] = biological target: Fuc(a1-2)[Gal(a1-3)]Gal(b1-4)Glc
In short: as §1

[24] = biological target: Fuc(a1-2)[Gal(a1-3)]Gal(b1-4)GlcNAc
In short: as §1

[25] = biological target: Fuc(a1-2)[Gal(a1-3)]Gal(b1-4)[Fuc(a1-3)]GlcNAc
In short: as §1

[26] = biological target: Fuc(a1-2)[Gal(a1-4)]Gal(b1-4)GalNAc
In short: as §1

[27] = biological target: Fuc(a1-2)[GalNAc(a1-3)]Gal
In short: as §1

[28] = biological target: Fuc(a1-2)[GalNAc(a1-3)]Gal(b1-3)GlcNAc
In short: as §1

[29] = biological target: Fuc(a1-2)[GalNAc(a1-3)]Gal(b1-4)Glc
In short: as §1

[30] = biological target: Fuc(a1-2)[GalNAc(a1-3)]Gal(b1-4)GlcNAc
In short: as §1

[31] = biological target: Fuc(a1-2)[GalNAc(a1-3)]Gal(b1-4)[Fuc(a1-3)]GlcNAc
In short: as §1

[32] = biological target: Fuc(a1-2)[GalNAc(a1-4)]Gal(b1-4)GlcNAc
In short: as §1

[33] = biological target: Fuc(a1-3)GlcNAc
In short: as §1

[34] = biological target: Fuc(a1-3)[Gal(b1-4)]Glc6S
In short: as §1

[35] = biological target: Fuc(a1-3)[Gal(b1-4)]GlcNAc
In short: as §1

[36] = biological target: Fuc(a1-3)[Gal(b1-4)]GlcNAc(b1-3)Gal(b1-3)[Fuc(a1-4)]GlcNAc
In short: as §1

[37] = biological target: Fuc(a1-3)[Gal(b1-4)]GlcNAc(b1-4)Gal(b1-4)[Fuc(a1-3)]GlcNAc
In short: as §1

[38] = biological target: Fuc(a1-3)[Gal(b1-4)]GlcNAc(b1-4)Gal(b1-4)[Fuc(a1-3)]GlcNAc(b1-4)Gal(b1-4)[Fuc(a1-3)]GlcNAc
In short: as §1

[39] = biological target: Fuc(a1-3)[Gal(b1-4)]GlcNAc6S
In short: as §1

[40] = biological target: Fuc(a1-3)[Gal3S(b1-4)]Glc
In short: as §1

[41] = biological target: Fuc(a1-3)[Gal3S(b1-4)]Glc6S
In short: as §1

[42] = biological target: Fuc(a1-3)[Gal3S(b1-4)]GlcNAc
In short: as §1

[43] = biological target: Fuc(a1-3)[Gal3S(b1-4)]GlcNAc6S
In short: as §1

[44] = biological target: Fuc(a1-3)[GalNAc(b1-4)]Gal(b1-4)GlcNAc
In short: as §1

[45] = biological target: Fuc(a1-4)GlcNAc
In short: as §1

[46] = biological target: Fuc(b1-3)GlcNAc
In short: as §1

[47] = biological target: Gal(a1-2)Gal
In short: as §1

[48] = biological target: Gal(a1-3)Gal
In short: as §1

[49] = biological target: Gal(a1-3)Gal(b1-3)Glc
In short: as §1

[50] = biological target: Gal(a1-3)Gal(b1-3)GlcNAc
In short: as §1

[51] = biological target: Gal(a1-3)Gal(b1-4)GlcNAc
In short: as §1

[52] = biological target: Gal(a1-3)Gal(b1-4)[Fuc(a1-3)]GalNAc
In short: as §1

[53] = biological target: Gal(a1-3)GlcNAc
In short: as §1

[54] = biological target: Gal(a1-3)[Gal(a1-4)]Gal(b1-4)GlcNAc
In short: as §1

[55] = biological target: Gal(a1-4)Gal(b1-4)Gal
In short: as §1

[56] = biological target: Gal(a1-4)Gal(b1-4)GalNAc
In short: as §1

[57] = biological target: Gal(a1-4)GlcNAc
In short: as §1

[58] = biological target: Gal(a1-6)Glc
In short: as §1

[59] = biological target: Gal(b1-2)Gal
In short: as §1

[60] = biological target: Gal(b1-3)Gal
In short: as §1

B1: STA (Solanum tuberosum) (protein)
chain: NASAPLPYPQCGLKKGGGKCIKTGECCSIWGWCGTTSDYCAPGYCQKQCPGPYPQGRCGWQANGKSCPTGTGQCCSNAGWCGTTSDYCAPNNCQSQCKLPPPPPSPPPPPPSPPPPSPPPPPPSPPPPSPSPPPPPPSPPPPSPPPPSPPPPSPPPPPSPSPPPPPPSPPPPPPPLPYPQCGMKKGGGKCIKTGECCSIWGWCGTTSKYCSPGYCQMQCPDPYPEGRCGWQANGKSCPTGTGQCCSNAGWCGTTSAYCAPVNCQAQCNTTTLTSPIKNRMRGIESFMLNVV
Q: B1 was tested. Which “glycan array binding signal (z-score)” value [1] did it give?
A: -0.504

Q: And the “glycan array binding signal (z-score)” value [2]?
A: -0.505

Q: And the “glycan array binding signal (z-score)” value [3]?
A: -0.501

Q: And the “glycan array binding signal (z-score)” value [4]?
A: -0.498

Q: And the “glycan array binding signal (z-score)” value [5]?
A: -0.507

Q: What about the “glycan array binding signal (z-score)” value [6] of the same binder?
A: -0.497

Q: And the “glycan array binding signal (z-score)” value [7]?
A: -0.507

Q: And the “glycan array binding signal (z-score)” value [8]?
A: -0.508

Q: And the “glycan array binding signal (z-score)” value [9]?
A: -0.504

Q: What about the “glycan array binding signal (z-score)” value [10] of the same binder?
A: 0.574

Q: And the “glycan array binding signal (z-score)” value [11]?
A: 1.09

Q: What about the “glycan array binding signal (z-score)” value [12] of the same binder?
A: 0.92

Q: What about the “glycan array binding signal (z-score)” value [13] of the same binder?
A: 0.551

Q: And the “glycan array binding signal (z-score)” value [14]?
A: -0.51

Q: What about the “glycan array binding signal (z-score)” value [15] of the same binder?
A: -0.504

Q: And the “glycan array binding signal (z-score)” value [16]?
A: -0.516

Q: And the “glycan array binding signal (z-score)” value [17]?
A: -0.494

Q: What about the “glycan array binding signal (z-score)” value [18] of the same binder?
A: -0.491

Q: And the “glycan array binding signal (z-score)” value [19]?
A: -0.512

Q: And the “glycan array binding signal (z-score)” value [20]?
A: -0.508

Q: What about the “glycan array binding signal (z-score)” value [21] of the same binder?
A: -0.511

Q: And the “glycan array binding signal (z-score)” value [22]?
A: -0.493

Q: What about the “glycan array binding signal (z-score)” value [23] of the same binder?
A: -0.51

Q: And the “glycan array binding signal (z-score)” value [24]?
A: 2.57

Q: What about the “glycan array binding signal (z-score)” value [25] of the same binder?
A: -0.504

Q: And the “glycan array binding signal (z-score)” value [26]?
A: 0.418

Q: And the “glycan array binding signal (z-score)” value [27]?
A: -0.488

Q: And the “glycan array binding signal (z-score)” value [28]?
A: -0.511

Q: What about the “glycan array binding signal (z-score)” value [29] of the same binder?
A: -0.506

Q: And the “glycan array binding signal (z-score)” value [30]?
A: 2.86

Q: And the “glycan array binding signal (z-score)” value [31]?
A: -0.497

Q: And the “glycan array binding signal (z-score)” value [32]?
A: 2.13

Q: And the “glycan array binding signal (z-score)” value [33]?
A: -0.511

Q: And the “glycan array binding signal (z-score)” value [34]?
A: -0.497

Q: And the “glycan array binding signal (z-score)” value [35]?
A: -0.509

Q: What about the “glycan array binding signal (z-score)” value [36] of the same binder?
A: -0.509

Q: What about the “glycan array binding signal (z-score)” value [37] of the same binder?
A: -0.472

Q: What about the “glycan array binding signal (z-score)” value [38] of the same binder?
A: -0.513

Q: What about the “glycan array binding signal (z-score)” value [39] of the same binder?
A: -0.451

Q: And the “glycan array binding signal (z-score)” value [40]?
A: -0.504

Q: What about the “glycan array binding signal (z-score)” value [41] of the same binder?
A: -0.495

Q: And the “glycan array binding signal (z-score)” value [42]?
A: -0.491

Q: What about the “glycan array binding signal (z-score)” value [43] of the same binder?
A: -0.423

Q: And the “glycan array binding signal (z-score)” value [44]?
A: 1.92

Q: And the “glycan array binding signal (z-score)” value [45]?
A: -0.501

Q: What about the “glycan array binding signal (z-score)” value [46] of the same binder?
A: -0.502

Q: What about the “glycan array binding signal (z-score)” value [47] of the same binder?
A: -0.488

Q: What about the “glycan array binding signal (z-score)” value [48] of the same binder?
A: -0.506

Q: And the “glycan array binding signal (z-score)” value [49]?
A: -0.508

Q: And the “glycan array binding signal (z-score)” value [50]?
A: -0.499

Q: And the “glycan array binding signal (z-score)” value [51]?
A: 3.27

Q: And the “glycan array binding signal (z-score)” value [52]?
A: -0.507

Q: What about the “glycan array binding signal (z-score)” value [53] of the same binder?
A: -0.506

Q: What about the “glycan array binding signal (z-score)” value [54] of the same binder?
A: 2.02

Q: What about the “glycan array binding signal (z-score)” value [55] of the same binder?
A: -0.498

Q: And the “glycan array binding signal (z-score)” value [56]?
A: 1.89

Q: And the “glycan array binding signal (z-score)” value [57]?
A: -0.507

Q: What about the “glycan array binding signal (z-score)” value [58] of the same binder?
A: -0.5

Q: What about the “glycan array binding signal (z-score)” value [59] of the same binder?
A: -0.498

Q: What about the “glycan array binding signal (z-score)” value [60] of the same binder?
A: -0.503
